Experimental data reported in the BET-seq Pho4 binding data (Le et al. 2018).
The list shows a part of the results. Values were computed here from the reads of four pooled replicates and scatter widely.

The sequences below were run against T1, Pho4 (S. cerevisiae) (UniProt P07270) (assay: relative binding free energy (BET-seq); higher = weaker binding). Details: reference: library average.
T1 sequence: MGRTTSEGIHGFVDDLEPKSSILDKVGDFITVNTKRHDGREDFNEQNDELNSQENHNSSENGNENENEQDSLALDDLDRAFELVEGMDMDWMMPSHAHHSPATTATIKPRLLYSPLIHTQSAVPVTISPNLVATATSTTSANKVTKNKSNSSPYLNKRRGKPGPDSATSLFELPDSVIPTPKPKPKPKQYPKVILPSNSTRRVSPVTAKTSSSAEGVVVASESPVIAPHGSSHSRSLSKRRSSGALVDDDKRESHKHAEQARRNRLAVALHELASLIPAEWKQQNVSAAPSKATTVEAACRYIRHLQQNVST

Relative binding free energy, -0.24 kcal/mol:
GGCGCCACGTGGGGTT
TTTGGCACGTGCTCTT

Relative binding free energy, 0.26 kcal/mol:
TGCTTCACGTGGTAGC
GGTCTCACGTGTGGTC
TGGCTCACGTGTTTTA

Relative binding free energy, 0.03 kcal/mol:
TGTGACACGTGTTAAT
GGAGCCACGTGGAGTG

Relative binding free energy, 0.02 kcal/mol:
TGAGGCACGTGTTATC
GGGGGCACGTGGATTT
TTTAGCACGTGCAGTT
GGGTCCACGTGTAGGT

Relative binding free energy, -0.16 kcal/mol:
TGTTGCACGTGCCGGT
TTAAGCACGTGCTTGT
TTTAGCACGTGGTTCG
CATTGCACGTGGTAGT
TTAGGCACGTGGTAGG
GGTAGCACGTGGGGAC
GGGTGCACGTGCTGCT

Relative binding free energy, -0.35 kcal/mol:
AGAGGCACGTGGGGGC

Relative binding free energy, -0.2 kcal/mol:
TAGAGCACGTGCGAGG
CTACGCACGTGTTGTG
ATGTACACGTGGGATA
TGGGCCACGTGGCGAG

Relative binding free energy, -0.13 kcal/mol:
CTCGGCACGTGGTGAG
GTGGCCACGTGCTGTG

Relative binding free energy, 0.19 kcal/mol:
CTTAACACGTGGGAAG
CGTTTCACGTGGAGGT

Relative binding free energy, 0.27 kcal/mol:
GCTTTCACGTGTTGTA

Relative binding free energy, 0.46 kcal/mol:
AGTTTCACGTGTAAGA

Relative binding free energy, 0.2 kcal/mol:
TAGATCACGTGGATAT
ATGTACACGTGTAGCG
TCATTCACGTGCTTGT

Relative binding free energy, -0.28 kcal/mol:
AAGTGCACGTGGGCTA
TCATGCACGTGGGTAT

Relative binding free energy, 0.38 kcal/mol:
TAATTCACGTGTGGTC
GGTTACACGTGATGCG
GGGATCACGTGAGGGT

Relative binding free energy, -0.31 kcal/mol:
AAAGGCACGTGGGTTA

Relative binding free energy, 0.05 kcal/mol:
TTTACCACGTGTGTTG
AAGGTCACGTGGTATG
GTCGTCACGTGGAGGG
GTTGGCACGTGTAAGG
TTGTCCACGTGGATGG
GTATACACGTGGAAGG
AATAGCACGTGTGGAG

Relative binding free energy, 0.42 kcal/mol:
TATTTCACGTGACTTG

Relative binding free energy, 0.18 kcal/mol:
ATCGGCACGTGAGTTT
ACGTGCACGTGAGATT

Relative binding free energy, 0.53 kcal/mol:
CTTTACACGTGAGAGT

Relative binding free energy, 0.23 kcal/mol:
TTGTTCACGTGTATTA
CGTATCACGTGATGGG
AGCTTCACGTGGGGCG

Relative binding free energy, -0.07 kcal/mol:
TTGGGCACGTGGAAGA
GTGAGCACGTGGAATT
TTGTGCACGTGTCAGC
TGTTCCACGTGGTGAA
GTAGACACGTGGAGTG
TTATACACGTGGCATG

Relative binding free energy, 0.32 kcal/mol:
AGGATCACGTGCGAGG
ATTTACACGTGGAAAG
TGTGTCACGTGAGGAT
TTTTCCACGTGAGAGG

Relative binding free energy, 0.39 kcal/mol:
TATTTCACGTGAGTGT
GAGGACACGTGAGGGT

Relative binding free energy, 0.35 kcal/mol:
GTACTCACGTGGATTG
TTTTTCACGTGTCAAG
GTGTTCACGTGAGAGC

Relative binding free energy, -0.05 kcal/mol:
TGGCCCACGTGGATGT
GTATGCACGTGTCAGG
TGAGGCACGTGTGGGC
AAGGACACGTGGGGGG
CTGGCCACGTGTGGGG
GGCAACACGTGGGTAT

Relative binding free energy, 0.12 kcal/mol:
GTGGACACGTGGATGT
GGGGGCACGTGTAAAG
GCGTGCACGTGATTTT

Relative binding free energy, 0.07 kcal/mol:
ATGTACACGTGCGTGG
TTTATCACGTGCCTGG
ATTTGCACGTGTGTCT
AAGGTCACGTGTCGAT
TTTAGCACGTGTGGAC
ATTTGCACGTGCGAGT

Relative binding free energy, 0.45 kcal/mol:
GGGCTCACGTGATTTT
GGCAACACGTGAGAGG
TGTTCCACGTGAAGGC

Relative binding free energy, 0.14 kcal/mol:
GTCGTCACGTGTATTT
GCGCGCACGTGAGGGT
TTATTCACGTGCTTGC

Relative binding free energy, 0.25 kcal/mol:
TGCTTCACGTGGAGCG
AGGGACACGTGAACGG
TGGATCACGTGTTCGG
GGGTGCACGTGAGTGT

Relative binding free energy, -0.01 kcal/mol:
TCTTGCACGTGGTTTA
GAGGGCACGTGTGGGT
CTGAACACGTGGTCGG

Relative binding free energy, -0.19 kcal/mol:
CTTAACACGTGTTGTA
TTTGGCACGTGGGTAC

Relative binding free energy, -0.02 kcal/mol:
AAGGACACGTGTGTAG
ATATGCACGTGTAATT
ATGAGCACGTGAGAGT

Relative binding free energy, 0.34 kcal/mol:
GTGAACACGTGAGGAT
TGTTTCACGTGTGTGA
CAGATCACGTGAGGTT
ATCTTCACGTGGTATT
GAGATCACGTGTGGTT

Relative binding free energy, -0.03 kcal/mol:
TAGGACACGTGGTTGG
TGCAGCACGTGATGTT
ACTGTCACGTGTCGGG
TATGGCACGTGTTATT
AGTGTCACGTGGGGCC
ATGAGCACGTGGATCG
AATGACACGTGGGGGG

Relative binding free energy, 0.31 kcal/mol:
TAGCTCACGTGTTGTA
GTGTTCACGTGATGTC

Relative binding free energy, -0.1 kcal/mol:
AGATACACGTGGGTCG
CAGGACACGTGGGCGG
TTTGGCACGTGCCGTG

Relative binding free energy, 0.04 kcal/mol:
GGTAGCACGTGTGGCG
TAAGACACGTGGATGT
GTTCGCACGTGTTTAT
TGGCTCACGTGGGTTA

Relative binding free energy, -0.25 kcal/mol:
AGAGGCACGTGGCCGG

Relative binding free energy, -0.22 kcal/mol:
TTTAACACGTGGGGAA
GGTGGCACGTGGATGC
TGACGCACGTGGGGCG

Relative binding free energy, -0.12 kcal/mol:
GGTGGCACGTGGTGCT
TGTAACACGTGGAGTA
TCGTGCACGTGCGTTT
AGGAGCACGTGTCTTG
GCTGGCACGTGTGGGC

Relative binding free energy, 0.3 kcal/mol:
AACTTCACGTGGGGTC

Relative binding free energy, -0.09 kcal/mol:
AGTGCCACGTGTAGGA
TAGGGCACGTGCGGGT
GAGTGCACGTGGGCGC

Relative binding free energy, -0.14 kcal/mol:
ATGGGCACGTGCAGTG
TTGGGCACGTGCTGGC

Relative binding free energy, 0.28 kcal/mol:
GGTTTCACGTGGGTTG

Relative binding free energy, -0.11 kcal/mol:
GCAAGCACGTGGAGGG
GTTTGCACGTGGGGGG
AGGGCCACGTGTACGG
GAGGGCACGTGCCGGG

Relative binding free energy, 0.17 kcal/mol:
CATTGCACGTGTAAGT
CGAGGCACGTGAGTTT
GTTGACACGTGTGGGC
GAATTCACGTGGGGAT

Relative binding free energy, 0.33 kcal/mol:
TGTTTCACGTGATAGG

Relative binding free energy, 0.1 kcal/mol:
GTTGGCACGTGGAACG
GGTAACACGTGTTAGC
TGTCTCACGTGCGTGT

Relative binding free energy, 0.43 kcal/mol:
AGGTTCACGTGATTGT
GGGCTCACGTGAGTCG

Relative binding free energy, 0.37 kcal/mol:
TTATTCACGTGAGGTA

Relative binding free energy, -0.21 kcal/mol:
CGAGGCACGTGGGGCG
TGAGGCACGTGGTAAG

Relative binding free energy, -0.08 kcal/mol:
CTTGCCACGTGGTGGG
AGCGTCACGTGTTGGA

Relative binding free energy, -0.04 kcal/mol:
AATGACACGTGTAGTT
TCTTGCACGTGGGATA
TTTCGCACGTGTATGG

Relative binding free energy, 0.47 kcal/mol:
TCGTTCACGTGAGAGG

Relative binding free energy, 0.08 kcal/mol:
ATTGTCACGTGTTGAT
TTTGGCACGTGTAGCG
CAGTGCACGTGGAAGG
GTCGGCACGTGGAGAT
GGGAACACGTGCGGAG
TATTGCACGTGACTTG
TTTAGCACGTGTCAAT
TGGACCACGTGTTAGT
CTATTCACGTGTGTTG

Relative binding free energy, -0.17 kcal/mol:
GGTGGCACGTGCCGGT
CATAGCACGTGTTTTG
GGTGGCACGTGGTACG

Relative binding free energy, -0.06 kcal/mol:
GTGTGCACGTGGCCGT
TATTGCACGTGGAGCG
GTGAGCACGTGCGTGG
ACGTGCACGTGGGTTT
TTTCGCACGTGCTGTT
ACATGCACGTGTTAGT
CGGTGCACGTGGCTGG

Relative binding free energy, 0.06 kcal/mol:
CGGGTCACGTGGTCGC
GGAGTCACGTGTCGAG
ATTTGCACGTGGATTG
AAGGGCACGTGATACG
AGGGTCACGTGTTGCG
TTGAACACGTGCGTTG
TTGAACACGTGGATGA
AAGATCACGTGGGGGG

Relative binding free energy, 0.29 kcal/mol:
GGCTACACGTGAGTAG

Relative binding free energy, 0.16 kcal/mol:
TATCACACGTGTAGGG
CTGGGCACGTGAGGGA
TTTTACACGTGTCATA
GGTTACACGTGGTCTG

Relative binding free energy, 0.21 kcal/mol:
GGTCTCACGTGTAGCG

Relative binding free energy, 0.22 kcal/mol:
GGATTCACGTGGGTGC
AGTTTCACGTGCTGTA
CTGGTCACGTGGGAAA

Relative binding free energy, -0.23 kcal/mol:
CTAAGCACGTGGTATG

Relative binding free energy, 0.24 kcal/mol:
ATCTTCACGTGGGTTT
TTTGTCACGTGTGGTG
AGTATCACGTGAAGGT
AATTTCACGTGAAAGG
TTTATCACGTGTCGAT
TTGCTCACGTGTGCTA

Relative binding free energy, 0.15 kcal/mol:
TAGTCCACGTGTGAAG
AGGTTCACGTGTTCTT
GGGGTCACGTGGTGGG

Relative binding free energy, 0.11 kcal/mol:
ATTTACACGTGGCGTT
TTGGTCACGTGTGCAA
TGAATCACGTGTCTGT
TGGAGCACGTGATTGA

Relative binding free energy, 0 kcal/mol:
CGCGTCACGTGGTTGG
CAGGGCACGTGGAGTT
TTTTACACGTGGTTCA
GATTACACGTGGGGCG
TGGGGCACGTGAGAGC
TGGAGCACGTGGTTTA

Relative binding free energy, -0.15 kcal/mol:
GTTAACACGTGGGAGG
CATGACACGTGGGTAG
AGGGACACGTGGGGGG

Relative binding free energy, 0.13 kcal/mol:
GGCGTCACGTGGTGGA
TGGATCACGTGCTAGG
GGAGTCACGTGGCTGG

Relative binding free energy, 0.09 kcal/mol:
TGAATCACGTGGCGTA
GTGTGCACGTGTGTCT
TGTCTCACGTGGTGTA
TAGGTCACGTGCTTGT

Relative binding free energy, -0.18 kcal/mol:
TTATACACGTGGGGTT
AGTACCACGTGCGGGG
TGTGGCACGTGGGTCC
AGGCGCACGTGGGTAA
